Measured values: patent US20240226235A1 (ACCELERON PHARMA, published 2024)

Tests used:
Assay in all cases: cell-based or functional assay
Human TGFβ1 [1] = target: T1, Human TGFβ1 (human, UniProt P01137 partial chain)
Human TGFβ1 [2] = target: T1, Human TGFβ1; remark: listed apart in the source
Human TGFβ1 [3] = target: T1, Human TGFβ1; remark: listed apart in the source

T1 sequence (P01137 279-390 limits assumed): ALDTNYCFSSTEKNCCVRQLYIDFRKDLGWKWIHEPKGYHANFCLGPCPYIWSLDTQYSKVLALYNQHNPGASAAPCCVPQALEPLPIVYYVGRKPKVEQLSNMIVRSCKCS

Binder | IC50; inhibition of TGFβ1-induced pGL3(CAGA)12 luciferase reporter in A549 cells (Human TGFβ1 [1]) [nM] | IC50 (read off the curve); TGFβ1 (640 pg/mL)-induced CAGA luciferase reporter in A549 cells (Human TGFβ1 [2]) [ng/mL] | IC50; inhibition of TGFβ1-induced pGL3(CAGA)12 luciferase reporter in A549 cells (Human TGFβ1 [3]) [nM]
hTβRII-hFc (Fc fusion) GATIPPHVQKSDVEMEAQKDEIICPSCNRTAHPLRHINNDMIVTDNNGAVKFPQLCKFCDVRFSTCDNQKSCMSNCSITSICEKPQEVCVAVWRKNDENITLETVCHDPKLPYHDFILEDAASPKCIMKEKKKPGETFFMCSCSSDECNDNIIFSEEYNTSNPDTG[… human IgG1 Fc and a few adjoining residues …] | 7.69 | – | –
hTβRII (G4S)5-hFc (Fc fusion) GATIPPHVQKSDVEMEAQKDEIICPSCNRTAHPLRHINNDMIVTDNNGAVKFPQLCKFCDVRFSTCDNQKSCMSNCSITSICEKPQEVCVAVWRKNDENITLETVCHDPKLPYHDFILEDAASPKCIMKEKKKPGETFFMCSCSSDECNDNIIFSEEYNTSNPDTGGGGSGGGGSGGGGSGGGGSGGG[… human IgG1 Fc and a few adjoining residues …] | – | ~3 | 0.03
hTβRII (G4S)6-hFc (Fc fusion) GATIPPHVQKSDVEMEAQKDEIICPSCNRTAHPLRHINNDMIVTDNNGAVKFPQLCKFCDVRFSTCDNQKSCMSNCSITSICEKPQEVCVAVWRKNDENITLETVCHDPKLPYHDFILEDAASPKCIMKEKKKPGETFFMCSCSSDECNDNIIFSEEYNTSNPDTGGGGSGGGGSGGGGSGGGGSGGGGSGGG[… human IgG1 Fc and a few adjoining residues …] | – | ~2 | 0.02
hTβRII (G4S)2-hFc (Fc fusion) GATIPPHVQKSDVEMEAQKDEIICPSCNRTAHPLRHINNDMIVTDNNGAVKFPQLCKFCDVRFSTCDNQKSCMSNCSITSICEKPQEVCVAVWRKNDENITLETVCHDPKLPYHDFILEDAASPKCIMKEKKKPGETFFMCSCSSDECNDNIIFSEEYNTSNPDTGGGGSGGG[… human IgG1 Fc and a few adjoining residues …] | 1.12 | – | –
hTβRII (G4S)3-hFc (Fc fusion) GATIPPHVQKSDVEMEAQKDEIICPSCNRTAHPLRHINNDMIVTDNNGAVKFPQLCKFCDVRFSTCDNQKSCMSNCSITSICEKPQEVCVAVWRKNDENITLETVCHDPKLPYHDFILEDAASPKCIMKEKKKPGETFFMCSCSSDECNDNIIFSEEYNTSNPDTGGGGSGGGGSGGG[… human IgG1 Fc and a few adjoining residues …] | 0.22 | – | –
hTβRII (G4S)4-hFc (Fc fusion) GATIPPHVQKSDVEMEAQKDEIICPSCNRTAHPLRHINNDMIVTDNNGAVKFPQLCKFCDVRFSTCDNQKSCMSNCSITSICEKPQEVCVAVWRKNDENITLETVCHDPKLPYHDFILEDAASPKCIMKEKKKPGETFFMCSCSSDECNDNIIFSEEYNTSNPDTGGGGSGGGGSGGGGSGGG[… human IgG1 Fc and a few adjoining residues …] | 0.07 | – | –
hTβRII extended hinge-hFc (Fc fusion) GATIPPHVQKSDVEMEAQKDEIICPSCNRTAHPLRHINNDMIVTDNNGAVKFPQLCKFCDVRFSTCDNQKSCMSNCSITSICEKPQEVCVAVWRKNDENITLETVCHDPKLPYHDFILEDAASPKCIMKEKKKPGETFFMCSCSSDECNDNIIFSEEYNTSNPDTGGG[… human IgG1 Fc …] | 5.67 | – | –

Where two headings read alike, the source gives them in different places.
